Data taken from patent US20060167109A1, “Methods of reducing rhinovirus contagion and related compositions” (priority 2002, published 2006).

Tested on: 101 serotypes of HRVs
Assay: Spectrum of activity in HRV cytopathic effect assay
Conditions: Human rhinovirus sp., read-out: drug concentration range inhibiting replication of 93 of 101 HRVs
Description: To determine the spectrum of activity and potency of pleconaril against the 101 serotypes of HRVs, each virus was tested in a cell culture assay that measured the drug's efficacy against the cytopathic effects of the viruses, in an infected cell monolayer.
HRV stocks were grown in HeLa (WIS) cells in 150 cm^2 flasks, frozen/thawed 3 times, aliquoted and stored frozen at −80° C. The virus inoculum to be used in the assay for each virus was determined as follows. HeLa (WIS) cells were seeded on 96-well tissue culture plates (Costar, 3598) at a density of 2.8×10^4 cells/well in M199 medium (Sigma) supplemented with 5% heat-inactivated newborn bovine serum. Twenty-four hours later, serial 0.5 log10 dilutions of each virus stock were plated in octuplicate onto the cells in complete M199 medium (5% heat-inactivated fetal bovine serum (FBS), 0.15 mM MgCl2, and 7.5 μg/mL diethylamino-dextran (DEAE-dextran)). The plates were incubated for 3 days at 33° C. in a humidified, 2.5% CO2 atmosphere, then fixed with 5% glutaraldehyde and stained with 0.1% crystal violet. After rinsing and drying, the optical density of the wells was read at a wavelength of 570 nm (OD570) on a Bio-Tek model EL-310 plate reader. […] Drug sensitivity of HRVs was determined as previously described (Pevear et al., 1999, supra), except that incubation conditions were at 33° C. in complete M199 medium and 2.5% CO2. […]

Cc1cc(CCCOc2c(C)cc(-c3noc(C(F)(F)F)n3)cc2C)on1 [pleconaril, 3-[3,5-dimethyl-4-[3-(3-methyl-5-isoxazolyl)propoxy]phenyl]-5-(trifluoromethyl)-1,2,4-oxadiazole]
IC50: 0.01 to 6.8 µM
